Reference: the supplement of paper PMC7125110
± gives the standard error. This sample is rich in variants without activity.

B1: glmS ribozyme (parent)
chain: AUAAAAGCGCCAGAACUACAGAAAUGUAGUUGACGAGGAGGAGGUUUAUCGAAUUUUCGGCGGAUGCCUCCAAA

Legend:
Conditions in all cases: with glucosamine-6-phosphate
glucosamine-6-phosphate [1] = variants of: B1; test: self-cleavage kobs at 640 uM GlcN6P; higher = faster cleavage; RNA array
Procedure, shortened: (§1)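 In situ transcription by E. coli RNA polymerase produced barcoded ribozyme variants on sequenced MiSeq chips, and a hybridised Cy3 probe tracked them at 37 °C. Glucosamine-6-phosphate was flowed in at 40 μM to 10 mM in HEPES/KCl/Mg(OAc)2 buffer. kcat and KM were taken from weighted Michaelis–Menten fits of kobs values from exponential decay fits.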

glucosamine-6-phosphate [2] = variants of: B1; test: self-cleavage kobs at 2500 uM GlcN6P; higher = faster cleavage; RNA array
Procedure, shortened: as §1

glucosamine-6-phosphate [3] = variants of: B1; test: self-cleavage kobs at 160 uM GlcN6P; higher = faster cleavage; RNA array
Procedure, shortened: as §1

glucosamine-6-phosphate [4] = variants of: B1; test: self-cleavage kobs at 10000 uM GlcN6P; higher = faster cleavage; RNA array
Procedure, shortened: as §1

| Variant | self-cleavage kobs at 640 uM GlcN6P (glucosamine-6-phosphate [1]) [s⁻¹] | self-cleavage kobs at 2500 uM GlcN6P (glucosamine-6-phosphate [2]) [s⁻¹] | self-cleavage kobs at 160 uM GlcN6P (glucosamine-6-phosphate [3]) [s⁻¹] | self-cleavage kobs at 10000 uM GlcN6P (glucosamine-6-phosphate [4]) [s⁻¹] |
| --- | --- | --- | --- | --- |
| A12C A20C | 0.00491 ± 0.0012 | 0.0118 ± 0.0035 |  |  |
| A14G C34G G40C G41U C67G | < 1e-05 | < 1e-05 |  |  |
| C8A C16A G32C A42G | < 1e-05 |  |  |  |
| A14U A33C C68U C70U | < 1e-05 | < 1e-05 |  |  |
| G32A A48U U65C | < 1e-05 |  |  |  |
| G29C U46G U57G | < 1e-05 | < 1e-05 | < 1e-05 |  |
| C8G A12C G37A | < 1e-05 | < 1e-05 |  |  |
| C16U G35C | < 1e-05 |  |  | < 1e-05 |
| C10U G38A U47C C68G | < 1e-05 |  |  |  |
| U31G G44C | < 1e-05 |  | < 1e-05 |  |
| U30A G60U G63A | < 1e-05 |  |  |  |
| G9U C10U G35C | < 1e-05 |  |  |  |
| G9U G32C C34G C58U C68G | 0.000182 ± 7.9e-05 |  |  |  |
| C10U A33C U46C G51C G60C | < 1e-05 | < 1e-05 |  |  |
| C11A U30A G38C U65G | < 1e-05 | < 1e-05 | < 1e-05 | < 1e-05 |
| C11U G29C G37C | < 1e-05 |  |  |  |
| C10G A12U G62A | < 1e-05 | < 1e-05 | < 1e-05 | < 1e-05 |
| C10G A14U A48C | < 1e-05 | < 1e-05 |  |  |
| G29U A33G | < 1e-05 |  | < 1e-05 | < 1e-05 |

| Variant | self-cleavage kobs at 640 uM GlcN6P (glucosamine-6-phosphate [1]) [s⁻¹] | self-cleavage kobs at 2500 uM GlcN6P (glucosamine-6-phosphate [2]) [s⁻¹] | self-cleavage kobs at 160 uM GlcN6P (glucosamine-6-phosphate [3]) [s⁻¹] | self-cleavage kobs at 10000 uM GlcN6P (glucosamine-6-phosphate [4]) [s⁻¹] |
| --- | --- | --- | --- | --- |
| C11U U56A G66A | 8.42e-05 ± 1.7e-05 | 0.000197 ± 4.1e-05 | 4.3e-05 ± 1.4e-05 |  |
| A14G C34A U46C | < 1e-05 | < 1e-05 | < 1e-05 |  |
| A12C A36U A52G C68A | < 1e-05 |  |  |  |
| G13C G35U G38C G40U | < 1e-05 | < 1e-05 | < 1e-05 |  |
| U31C A48G G60A | < 1e-05 | < 1e-05 |  |  |
| C11G A39C G40U | < 1e-05 | < 1e-05 | < 1e-05 |  |
| C8A G32A G66A | < 1e-05 | < 1e-05 | < 1e-05 |  |
| C16U A33G A39C A42G | < 1e-05 |  |  |  |
| G9C C10U U30A | < 1e-05 | < 1e-05 | < 1e-05 |  |
| G13A G40A G62A | < 1e-05 | < 1e-05 |  |  |
| G13C U31G C70U | 4.2e-05 ± 1.9e-05 | 0.000148 ± 3.9e-05 |  | 0.000131 ± 2.7e-05 |
| C10U G63A | < 1e-05 | < 1e-05 |  |  |
| C16A U31G G38U G43A | < 1e-05 | < 1e-05 | < 1e-05 |  |
| A14U A15U A36U G40A G41A A53C U65C | < 1e-05 | < 1e-05 |  |  |
| G13U A42C | < 1e-05 | < 1e-05 | < 1e-05 | < 1e-05 |
| G32C A42C G62U | < 1e-05 | < 1e-05 |  |  |
| C10A C11G G35C G44C | < 1e-05 | < 1e-05 |  |  |
| A23C U69A | 0.000292 ± 0.0001 | 0.000135 ± 2.9e-05 |  | 9.83e-05 ± 4.3e-05 |
| A12G G41U C68G C70G | < 1e-05 |  |  |  |

| Variant | self-cleavage kobs at 640 uM GlcN6P (glucosamine-6-phosphate [1]) [s⁻¹] | self-cleavage kobs at 2500 uM GlcN6P (glucosamine-6-phosphate [2]) [s⁻¹] | self-cleavage kobs at 160 uM GlcN6P (glucosamine-6-phosphate [3]) [s⁻¹] | self-cleavage kobs at 10000 uM GlcN6P (glucosamine-6-phosphate [4]) [s⁻¹] |
| --- | --- | --- | --- | --- |
| C16G G44U U69C C70U | < 1e-05 | < 1e-05 |  | < 1e-05 |
| G32A G35A G37U U49C U55C G62U | < 1e-05 |  |  |  |
| A12U U56G G66C | 0.000374 ± 9e-05 | 0.000708 ± 0.00017 | 0.000132 ± 3.1e-05 |  |
| C8A G29A G41U G44U U57C | < 1e-05 |  |  |  |
| G9A G63U | < 1e-05 | < 1e-05 |  |  |
| G9A C16U G41A A48U | < 1e-05 | < 1e-05 | < 1e-05 | < 1e-05 |
| C11G A12U G32U G35C C71G | < 1e-05 |  |  |  |
| C8U G62A C70U | 6.07e-05 ± 2.6e-05 |  |  |  |
| A12U A14C U47A | 0.000593 ± 0.00011 | 0.00107 ± 0.00025 | 0.000117 ± 2.3e-05 |  |
| C8A U30G G40C | < 1e-05 | < 1e-05 |  |  |
| C8G G41A A53U | < 1e-05 | < 1e-05 |  |  |
| G29C C61G C70U | < 1e-05 |  |  |  |
| C10A A15G G35U G41U | < 1e-05 | < 1e-05 |  |  |
| C11A G44U A48G C61A | < 1e-05 |  |  |  |
| U30G G32C G41A C50G G51U | < 1e-05 | < 1e-05 |  |  |
| A14U G40U G60A | < 1e-05 | < 1e-05 |  |  |
| C10A C67U C68U | 0.000489 ± 0.00014 |  |  |  |
| C10U C68U C70U | < 1e-05 |  |  |  |
